{"source": "PubChem BioAssay AID1347120", "about": "(National Center for Advancing Translational Sciences (NCATS), 2019)", "note": "About 930 (0.24%) of roughly 390,000 compounds were called active. Inconclusive results, whose numbers are uncertain, are shown with a selection of clear calls. The call rests on the fitted dose curve; in most records, active means well fitted activation curve with a large enough effect; inconclusive means small, poorly fitted or top-dose-only effect; inactive means no such curve, though single readings can be large or run the other way. Where the call is inconclusive, the potency comes from a doubtful curve fit. Potency means the concentration at half of the fitted maximal effect; tags describe the fitted curve by direction and shape."}
{"assay": "qHTS for Suppressors of FUS Proteinopathy: Primary screen using FUS-linked yeast assay; further: nearly all actives have a fitted effect of over 55% in size;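 on growth rescue (activation): plate controls were DMSO vehicle for no effect and reference control for full effect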", "conditions": "S. cerevisiae FUS-expressing, OD600, 24 h; Potency: growth rescue; growth rescue (activation): at 76.6 µM (top of the series)", "summary_of_the_method": "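Restored growth of FUS-toxic S. cerevisiae, read as 600 nm absorbance after 24 h at 30C in galactose medium (starting OD 0.005). Controls CP55940 and DMSO.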"}
{"smiles": "CCOc1ccc(CCNC(=O)c2ccc3c(c2)c(C)c(C)n3Cc2ccccc2)cc1OCC", "Potency": "inconclusive: 31.6 µM [activator, single point]"}
{"smiles": "Cc1ccc2c(c1)cc1c(=O)n(CC(=O)NCCCc3ccccc3)nc(C)n12", "growth rescue (activation)": "inactive: 11.2%"}
{"smiles": "COc1cccc(C(NC(C)=O)c2nc(-c3csc4ccccc34)cs2)c1", "note": "(centres undefined)", "Potency": "inconclusive: 50.1 µM [activator, single point]"}
{"smiles": "O=C(Nc1ccc2snnc2c1)N1CCSCC1", "growth rescue (activation)": "inactive: 9.61%"}
{"smiles": "CCOc1ccc(NC(=O)CN(C)Cc2cc(=O)n3c(-c4ccccc4)csc3n2)cc1OCC", "Potency": "active: 17.8 µM"}
{"smiles": "CCCCn1c(SCC(=O)Nc2cc(NC(=O)c3ccco3)ccc2C)nc2ccccc2c1=O", "Potency": "active: 31.6 µM"}
{"smiles": "O=C(COc1c(F)c(F)c(C(F)(F)F)c(F)c1F)Nc1ccc(N2CCOCC2)c(Cl)c1", "Potency": "inconclusive: 20 µM [activator, partial curve, poor fit]"}
{"smiles": "COc1cc(NS(=O)(=O)c2ccc(NC(=S)NC(=O)c3ccc(F)c(F)c3)cc2)nc(OC)n1", "Potency": "inconclusive: 50.1 µM [activator, single point]"}
{"smiles": "Cc1cccc2c(C(=O)N3CCCCC3)cc(-c3ccccc3)nc12", "Potency": "inconclusive: 25.1 µM [activator, single point]"}
{"smiles": "CCCCOc1ccc(C2(C)CC(=O)NC2=O)cc1", "note": "(centres undefined)", "Potency": "inconclusive: 39.8 µM [activator, single point]"}
{"smiles": "O=C(Nc1cccc(S(=O)(=O)N2CCCCC2)c1)c1ccc2ncsc2c1", "Potency": "inconclusive: 28.2 µM [activator, partial curve, poor fit]"}
{"smiles": "COc1ccc(N2CSC3=C(C#N)C(c4cc(OC)c(OC)cc4OC)CC(=O)N3C2)c(OC)c1", "note": "(centres undefined)", "Potency": "inconclusive: 31.6 µM [activator, single point]"}
{"smiles": "Cc1cccc(Nc2nnc(SCC(=O)NC3CCCc4ccccc43)s2)c1C", "note": "(centres undefined)", "Potency": "inconclusive: 50.1 µM [activator, single point]"}
{"smiles": "O=C(CNc1cccc(S(=O)(=O)N2CCOCC2)c1)Nc1ccc(C(F)(F)F)cc1", "growth rescue (activation)": "inactive: 38.2%"}
{"smiles": "O=C(c1ccc(N2CCCC2=O)cc1)N1CCN(c2ccc(Cl)cc2)CC1", "growth rescue (activation)": "inactive: 23.1%"}
{"smiles": "CC1Cc2cc(/C(O)=C3/C(=O)C(=O)N(Cc4ccncc4)C3c3ccc(N(C)C)cc3)ccc2O1", "note": "(centres undefined)", "Potency": "inconclusive: 11.2 µM [activator, partial curve]"}
{"smiles": "CCC(C)[C@H](NS(=O)(=O)c1ccc(C)cc1)C(=O)N1CCC(C(=O)N[C@@H](Cc2ccccc2)C(=O)O)CC1", "note": "(some centres undefined)", "growth rescue (activation)": "inactive: 8.07%"}
{"smiles": "CC(=NNC(=O)CSc1nnc(-c2ccc(C(C)(C)C)cc2)n1-c1ccccc1)c1cccc2ccccc12", "Potency": "inconclusive: 12.6 µM [activator, partial curve]"}
{"smiles": "O=C(Nc1ccc(F)c(Cl)c1)C1CCCCC1", "growth rescue (activation)": "inactive: 5.99%"}
{"smiles": "CCOC1=C2[C@@H](CN(S(=O)(=O)c3ccc(C)cc3)[C@H]2c2cccc3ccccc23)[C@H]2C(=O)N(Cc3ccccc3)C(=O)[C@H]2C1", "Potency": "inconclusive: 11.2 µM [activator, partial curve]"}
{"smiles": "CCCOC(=O)c1c(NC(=O)C(C)Sc2nc(-c3ccccc3)cc(C(F)(F)F)n2)sc(C(=O)N(C)C)c1C", "note": "(centres undefined)", "Potency": "inconclusive: 20 µM [activator, partial curve]"}
{"smiles": "CN1CCc2c(sc(NC(=O)CSc3ccccc3)c2-c2nc3ccccc3s2)C1", "Potency": "inconclusive: 35.5 µM [activator, single point]"}
{"smiles": "O=C(CSc1nnc(CNc2ccc(F)cc2)n1-c1ccccc1)N1CCOCC1", "growth rescue (activation)": "inconclusive: 71.5% [activator]"}
{"smiles": "C[C@H]1[C@H](N(Cc2cccs2)Cc2cccs2)CC[C@@]23CCCN2C(=O)CCC[C@@H]13", "growth rescue (activation)": "inactive: 5.2%"}
{"smiles": "O=C(NCCO)c1cc2ccccc2cc1O", "Potency": "inconclusive: 0.891 µM [activator, full curve, poor fit]"}
{"smiles": "CCOC(=O)N1CCN(C(=O)c2ccc3nc4cc(Cl)ccc4c(=O)n3c2)CC1", "Potency": "inconclusive: 1.12 µM [activator, full curve, poor fit]"}
{"smiles": "CN1CCN(S(=O)(=O)c2ccc(-c3ccccc3)cc2)CC1", "Potency": "inconclusive: 22.4 µM [activator, partial curve, poor fit]"}
{"smiles": "Cc1nc(N2CCC(C)CC2)c2c(C)c(C(=O)Nc3ccc4c(c3)OCCO4)sc2n1", "growth rescue (activation)": "inactive: 32.9%"}
{"smiles": "CN(CC(=O)NC(=O)NCc1ccccc1)CC(=O)Nc1ccc(Cl)c(C(F)(F)F)c1", "Potency": "inconclusive: 50.1 µM [activator, single point]"}
{"smiles": "COc1ccc(-c2cc(-c3nnc(SCC(=O)N4CCOCC4)n3N)[nH]n2)cc1", "growth rescue (activation)": "inactive: 25.7%"}
{"smiles": "COc1cc(OC)cc(-c2c(C#Cc3ccsc3)c3cc(-c4cccc5[nH]cc(C=O)c45)ccc3n2C)c1", "Potency": "inconclusive: 25.1 µM [activator, partial curve, poor fit]"}
{"smiles": "COC(=O)[C@]12C[C@H](CC(=O)NCC3CCCCC3)C(=O)N(Cc3ccc(Cl)cc3Cl)C1=C[C@H](C1CCCC1)O[C@@H]2C", "Potency": "inconclusive: 3.55 µM [activator, full curve]"}
{"smiles": "COC(=O)[C@]12C[C@H](CC(=O)NCc3cccs3)C(=O)N(CCc3ccc(OC)c(OC)c3)C1=C[C@H](C(C)C)O[C@@H]2C1CC1", "Potency": "inconclusive: 35.5 µM [activator, single point]"}
{"smiles": "CCOc1ccccc1CNCc1cccn1-c1nnc(N2CCN(c3ccccc3)CC2)s1", "growth rescue (activation)": "inactive: 34.5%"}
{"smiles": "CCC(C)c1ccc(OCC(=O)NNC(=O)C2CCCCC2)cc1", "note": "(centres undefined)", "growth rescue (activation)": "inactive: 18.8%"}
{"smiles": "COc1ccc(S(=O)(=O)Nc2ccc(-c3cn4c(C)csc4n3)cc2)cc1", "Potency": "inconclusive: 50.1 µM [activator, single point]"}
{"smiles": "CC(=O)c1ccc(-n2c(CCC(=O)O)ccc2-c2ccc(Br)cc2)cc1", "growth rescue (activation)": "inactive: 11.5%"}
{"smiles": "CCCCn1c(N)c(N(CC(C)C)C(=O)CC(NC(=O)c2ccccc2Cl)c2ccccc2)c(=O)[nH]c1=O", "note": "(centres undefined)", "Potency": "inconclusive: 28.2 µM [activator, single point]"}
{"smiles": "CCOc1ccc(C(=O)NCC(=O)N2CCN(Cc3ccccc3)CC2)cc1", "growth rescue (activation)": "inactive: 6.93%"}
{"smiles": "Cc1cc(Oc2ccccc2)nc(SCC(=O)Nc2ccc(Cl)c(Cl)c2)n1", "Potency": "inconclusive: 50.1 µM [activator, single point]"}
{"smiles": "CC1CCC(=NNC(=O)c2ccccc2-n2cccc2)CC1", "note": "(centres undefined)", "Potency": "inconclusive: 0.891 µM [activator, full curve, poor fit]"}
{"smiles": "CC(C)C[C@@H](CN1CCC[C@@H]1CN1C(=S)NC[C@@H]1Cc1ccc(O)cc1)N1C[C@H](Cc2ccccc2)N(CCc2ccccc2)C1=S", "Potency": "inconclusive: 50.1 µM [activator, single point]"}
{"smiles": "Cc1ccc(-n2nnnc2CNC(=O)c2cc(C(F)(F)F)cc(C(F)(F)F)c2)cc1C", "growth rescue (activation)": "inactive: 13.9%"}
{"smiles": "CCOC(=O)c1ccc(CSc2nnc3cc(C)c4ccccc4n23)cc1", "Potency": "inconclusive: 50.1 µM [activator, single point]"}
{"smiles": "CC(=O)Nc1ccc(S(=O)(=O)Nc2nc3ccccc3nc2Nc2ccccc2)cc1", "growth rescue (activation)": "inactive: -7.89%"}
{"smiles": "Cc1cc(C)c(C)c(S(=O)(=O)N2CCN(C(=S)NCC3CCCO3)CC2)c1C", "note": "(centres undefined)", "Potency": "inconclusive: 25.1 µM [activator, partial curve, poor fit]"}
{"smiles": "COc1cc2c(cc1OC)C(c1ccc(Cl)cc1)N(c1ccc(C)c(F)c1)C(=O)C2", "note": "(centres undefined)", "Potency": "inconclusive: 50.1 µM [activator, single point]"}
{"smiles": "COc1ccccc1-c1nnc2sc(COc3ccc(F)cc3)nn12", "Potency": "inconclusive: 20 µM [activator, partial curve]"}
{"smiles": "CCCOc1ccc(N2C(=O)CC(NCc3ccncc3)C2=O)cc1", "note": "(centres undefined)", "Potency": "inconclusive: 35.5 µM [activator, single point]"}
{"smiles": "O=c1cc2c(nn1Cc1cccc([N+](=O)[O-])c1)-c1ccccc1CC2", "growth rescue (activation)": "inactive: 23.2%"}
{"smiles": "CC(C)Cn1c(N)c(C(=O)COC(=O)CC23CC4CC(CC(C4)C2)C3)c(=O)n(C)c1=O", "Potency": "inconclusive: 28.2 µM [activator, partial curve, poor fit]"}
{"smiles": "O=C(NCCOc1ccccc1)C1CCCCC1", "Potency": "inconclusive: 50.1 µM [activator, single point]"}
{"smiles": "O=C(OCc1ccccc1)C1CCCN1C(=O)c1ccccc1[N+](=O)[O-]", "note": "(centres undefined)", "growth rescue (activation)": "inactive: 16%"}
{"smiles": "C#CCOCCOCCOCCNc1nc(N2CCN(C(=O)[C@H](CCCCN)n3cc([C@@H](N)CC(C)C)nn3)CC2)nc(N2CCN(C(=O)[C@H](Cc3cc4ccccc4[nH]3)n3cc([C@@H](N)CC(C)C)nn3)CC2)n1", "growth rescue (activation)": "inactive: 45.1%"}
{"smiles": "O=C(c1cc(COc2cccc(C(F)(F)F)c2)on1)N1CCCC1", "growth rescue (activation)": "inactive: -18.3%"}
{"smiles": "CCOC(=O)[C@H]1[C@H]2COc3ccc(Br)cc3[C@@H]2N2C(=O)c3cc(OC)c(OC)cc3NC(=O)[C@@]12C", "Potency": "inconclusive: 22.4 µM [activator, partial curve]"}
{"smiles": "CC1(C(=O)NS(=O)(=O)c2ccc(Br)cc2)CCN1C(=O)C1(c2ccccc2)CC1", "note": "(centres undefined)", "growth rescue (activation)": "inactive: -7.65%"}
{"smiles": "Cc1ccccc1NC(=O)C1c2cccc[n+]2CC(=O)N1c1c(C)cccc1C", "note": "(centres undefined)", "Potency": "inconclusive: 44.7 µM [activator, single point]"}
{"smiles": "O=[N+]([O-])c1ccc(NCCNS(=O)(=O)c2ccccc2)c(C(F)(F)F)c1", "growth rescue (activation)": "inactive: -1.14%"}
{"smiles": "Cc1ccc(S(=O)(=O)N2CCCC2)cc1C(=O)O", "Potency": "inconclusive: 56.2 µM [activator, partial curve, poor fit]"}
{"smiles": "Cn1c(COc2ccccc2)nnc1SCC(=O)Nc1ccccc1-c1ccccc1", "Potency": "inconclusive: 8.91 µM [activator, partial curve, poor fit]"}
{"smiles": "S=C(Nc1ccc2c(c1)OCO2)N1CCN(Cc2ccco2)CC1", "growth rescue (activation)": "inactive: 20.5%"}
{"smiles": "CCOc1ccc(OCCCC(=O)O)cc1", "growth rescue (activation)": "inactive: 19.5%"}
{"smiles": "CCOc1ccc(-n2c(SCC(=O)Nc3ccc(S(=O)(=O)Nc4cc(C)nc(C)n4)cc3)nnc2-c2ccc(OC)cc2)cc1", "Potency": "inconclusive: 11.2 µM [activator, partial curve, poor fit]"}
